SMILES strings stand for the structures. ≈ marks a conversion by molar mass, not a printed value.

Test [1] relates to NNRTI resistant HIV-1 strain ARP1011. Put plainly: microbe, parasite or virus in culture. The conditions noted are these: Human immunodeficiency virus 1, MAGI.
For test [2], the system named is NRTI resistant HIV-1 strain ARP145. Nature of the test: Infection of MT4 cells with NRTI resistant HIV-1 strain ARP145, p24 content. To be noted: 5 to 0.63 μg/ml, FIG. 3. How it is done: The HIV-1 virus stock, described in Example 1, was used to asses the inhibitory effect of by P. amarus geraniin on the infection of CD4^+ lymphoide cells (MT4). The 50% tissue culture infectious dose (TCID50) was determined by infection of MT4 cells with serial dilutions of the virus stock and subsequent quantification of viral p24. content in the cell fluid (HIV-1 p24 core profile ELISA, NEN, Zaventem, Belgium). […] It was previously determined that geraniin was non-toxic at these concentrations. The MT4 target cells were incubated for 7 days in the presence of virus and inhibitor, and fresh medium (containing drugs) was added every other day. Infections were monitored by quantification of p24 content in the cell fluid. Samples without detectable p24 contents (compared to the reference inhibitors and uninfected negative controls) were regarded completely, protected from infection. Otherwise the content of p24 in the fluid was negatively correlated to protection. Each experiment was performed in triplicates. FIG. 2 graphically depicts the results of two independent tests (means, error bars reflect standard deviation).
The strain termed ARP145 (Tisdale et al. (1993), Proc Nat Acad Sci (USA) 90(12): 5653-5656) was obtained from the NIBSC (MRC) and is phenotypically characterized by a 3TC/FTC resistance.

Test [3] concerns NRTI resistant HIV-1 strain ARP141. Nature of the test: microbe, parasite or virus in culture. To be noted: Human immunodeficiency virus 1, MAGI.
Test [4] has as its system NNRTI resistant HIV-1 strain ARP1010. Put plainly: microbe, parasite or virus in culture. To be noted: Human immunodeficiency virus 1, MAGI.
Test [5] concerns NRTI resistant HIV-1 strain ARP145. Put plainly: microbe, parasite or virus in culture. The conditions noted are these: Human immunodeficiency virus 1, MAGI.
Test [6] deals with NRTI resistant HIV-1 strain ARP146. Put plainly: microbe, parasite or virus in culture. The conditions noted are these: Human immunodeficiency virus 1, MAGI.
Test [7] concerns NNRTI resistant HIV-1 strain ARP1014. Put plainly: microbe, parasite or virus in culture. To be noted: Human immunodeficiency virus 1, MAGI.

By EC50 is commonly meant the concentration at which the effect is half-maximal. Low readings indicate higher potency in that assay, high ones lower potency in that assay. For the compound `O=C1O[C@H]2[C@@H]3OC(=O)c4cc(O)c(O)c(O)c4-c4c(cc(O)c(O)c4O)C(=O)OC[C@H]2O[C@@H](OC(=O)c2cc(O)c(O)c(O)c2)[C@@H]3OC(=O)c2cc(O)c(O)c3c2[C@@H]2C1=CC(=O)[C@](O)(O3)C2(O)O` [Geraniin, geraniin], the 50% effective concentration (EC50) in test [1] amounted to 0.89 µg/mL (≈ 0.934 µM); in test [3], 0.83 µg/mL (≈ 0.871 µM); in test [4] it was 0.83 µg/mL (≈ 0.871 µM); in test [5] it was 0.95 µg/mL (≈ 0.997 µM); in test [6] it was 0.71 µg/mL (≈ 0.745 µM); in test [7], 1.1 µg/mL (≈ 1.15 µM). In addition, in test [2], the “inhibition of NRTI resistant strain compared with wild type (HX10)” value was “No significant difference”.

These data come from patent publication US20040161477A1, “Phyllanthus-derived compounds for the prevention and/or treatment of disease associated with a retrovirus” (priority 2000, published 2004).
